First the molecules themselves.
T1: RBFOX1 RRM (Homo sapiens, UniProt Q9NWB1 109-208)
T1 sequence: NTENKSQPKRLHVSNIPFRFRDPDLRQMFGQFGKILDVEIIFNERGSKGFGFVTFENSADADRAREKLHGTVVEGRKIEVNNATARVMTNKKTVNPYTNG

B1: ACUAACA (DNA:RNA)
RNA: GGGAGACCGGAAUUCAGAUUGUCCACUAACAUUAAAUCCCGUCGUAGCCACCA
DNA 1: CAATCTGAATTCCGGTCTCCC
DNA 2: TGGTGGCTACGACGGGATT
B2: UACCUCG (DNA:RNA)
RNA: B1 RNA with A25U, C26A, U27C, A28C, A29U, A31G
DNA 1: CAATCTGAATTCCGGTCTCCC
DNA 2: TGGTGGCTACGACGGGATT
B3: CUGGCCC (DNA:RNA)
RNA: B1 RNA with A25C, C26U, U27G, A28G, A29C, A31C
DNA 1: CAATCTGAATTCCGGTCTCCC
DNA 2: TGGTGGCTACGACGGGATT
B4: AUUGAUC (DNA:RNA)
RNA: B1 RNA with C26U, A28G, C30U, A31C
DNA 1: CAATCTGAATTCCGGTCTCCC
DNA 2: TGGTGGCTACGACGGGATT
B5: CCUGGUA (DNA:RNA)
RNA: B1 RNA with A25C, A28G, A29G, C30U
DNA 1: CAATCTGAATTCCGGTCTCCC
DNA 2: TGGTGGCTACGACGGGATT
B6: AGGGGGC (DNA:RNA)
RNA: B1 RNA with C26G, U27G, A28G, A29G, C30G, A31C
DNA 1: CAATCTGAATTCCGGTCTCCC
DNA 2: TGGTGGCTACGACGGGATT
B7: AGAUUCC (DNA:RNA)
RNA: B1 RNA with C26G, U27A, A28U, A29U, A31C
DNA 1: CAATCTGAATTCCGGTCTCCC
DNA 2: TGGTGGCTACGACGGGATT
B8: GUACCGC (DNA:RNA)
RNA: GGGAGACCGGAAUUCAGAUUGUCCGUACCGCUUAAAUCCCGUCGUAGCCACCA
DNA 1: CAATCTGAATTCCGGTCTCCC
DNA 2: TGGTGGCTACGACGGGATT
B9: CUUCGCG (DNA:RNA)
RNA: B1 RNA with A25C, C26U, A28C, A29G, A31G
DNA 1: CAATCTGAATTCCGGTCTCCC
DNA 2: TGGTGGCTACGACGGGATT
B10: GGGCCCG (DNA:RNA)
RNA: B8 RNA with U26G, A27G, G30C, C31G
DNA 1: CAATCTGAATTCCGGTCTCCC
DNA 2: TGGTGGCTACGACGGGATT
B11: GCCAUUC (DNA:RNA)
RNA: B1 RNA with A25G, U27C, A29U, C30U, A31C
DNA 1: CAATCTGAATTCCGGTCTCCC
DNA 2: TGGTGGCTACGACGGGATT
B12: AAGUAGU (DNA:RNA)
RNA: B1 RNA with C26A, U27G, A28U, C30G, A31U
DNA 1: CAATCTGAATTCCGGTCTCCC
DNA 2: TGGTGGCTACGACGGGATT
B13: GGGUGCC (DNA:RNA)
RNA: B8 RNA with U26G, A27G, C28U, C29G, G30C
DNA 1: CAATCTGAATTCCGGTCTCCC
DNA 2: TGGTGGCTACGACGGGATT
B14: ACAUCAG (DNA:RNA)
RNA: B1 RNA with U27A, A28U, A29C, C30A, A31G
DNA 1: CAATCTGAATTCCGGTCTCCC
DNA 2: TGGTGGCTACGACGGGATT
B15: CGUAUAC (DNA:RNA)
RNA: B1 RNA with A25C, C26G, A29U, C30A, A31C
DNA 1: CAATCTGAATTCCGGTCTCCC
DNA 2: TGGTGGCTACGACGGGATT
B16: AUUUAAG (DNA:RNA)
RNA: B1 RNA with C26U, A28U, C30A, A31G
DNA 1: CAATCTGAATTCCGGTCTCCC
DNA 2: TGGTGGCTACGACGGGATT
B17: GAGAUGG (DNA:RNA)
RNA: B8 RNA with U26A, A27G, C28A, C29U, C31G
DNA 1: CAATCTGAATTCCGGTCTCCC
DNA 2: TGGTGGCTACGACGGGATT
B18: UUGCGGU (DNA:RNA)
RNA: B8 RNA with G25U, A27G, C29G, C31U
DNA 1: CAATCTGAATTCCGGTCTCCC
DNA 2: TGGTGGCTACGACGGGATT
B19: AGGUCGU (DNA:RNA)
RNA: B8 RNA with G25A, U26G, A27G, C28U, C31U
DNA 1: CAATCTGAATTCCGGTCTCCC
DNA 2: TGGTGGCTACGACGGGATT
B20: GUGCAUA (DNA:RNA)
RNA: B8 RNA with A27G, C29A, G30U, C31A
DNA 1: CAATCTGAATTCCGGTCTCCC
DNA 2: TGGTGGCTACGACGGGATT
B21: GUACCGA (DNA:RNA)
RNA: B8 RNA with C31A
DNA 1: CAATCTGAATTCCGGTCTCCC
DNA 2: TGGTGGCTACGACGGGATT
B22: CUAAAAG (DNA:RNA)
RNA: B1 RNA with A25C, C26U, U27A, C30A, A31G
DNA 1: CAATCTGAATTCCGGTCTCCC
DNA 2: TGGTGGCTACGACGGGATT
B23: ACGGAAA (DNA:RNA)
RNA: B1 RNA with U27G, A28G, C30A
DNA 1: CAATCTGAATTCCGGTCTCCC
DNA 2: TGGTGGCTACGACGGGATT
B24: AUUAGCA (DNA:RNA)
RNA: B1 RNA with C26U, A29G
DNA 1: CAATCTGAATTCCGGTCTCCC
DNA 2: TGGTGGCTACGACGGGATT
B25: UCCAGAC (DNA:RNA)
RNA: B1 RNA with A25U, U27C, A29G, C30A, A31C
DNA 1: CAATCTGAATTCCGGTCTCCC
DNA 2: TGGTGGCTACGACGGGATT
B26: ACUCAGG (DNA:RNA)
RNA: B1 RNA with A28C, C30G, A31G
DNA 1: CAATCTGAATTCCGGTCTCCC
DNA 2: TGGTGGCTACGACGGGATT
B27: GUUCACU (DNA:RNA)
RNA: B1 RNA with A25G, C26U, A28C, A31U
DNA 1: CAATCTGAATTCCGGTCTCCC
DNA 2: TGGTGGCTACGACGGGATT
B28: CGAUGCG (DNA:RNA)
RNA: B1 RNA with A25C, C26G, U27A, A28U, A29G, A31G
DNA 1: CAATCTGAATTCCGGTCTCCC
DNA 2: TGGTGGCTACGACGGGATT
B29: ACAGGGU (DNA:RNA)
RNA: B1 RNA with U27A, A28G, A29G, C30G, A31U
DNA 1: CAATCTGAATTCCGGTCTCCC
DNA 2: TGGTGGCTACGACGGGATT
B30: CGUCAUC (DNA:RNA)
RNA: B1 RNA with A25C, C26G, A28C, C30U, A31C
DNA 1: CAATCTGAATTCCGGTCTCCC
DNA 2: TGGTGGCTACGACGGGATT
B31: AAGCACG (DNA:RNA)
RNA: B1 RNA with C26A, U27G, A28C, A31G
DNA 1: CAATCTGAATTCCGGTCTCCC
DNA 2: TGGTGGCTACGACGGGATT

Residue numbers refer to the chain shown, from its start. This is one part of the list.

The assay addresses T1, RBFOX1 RRM. Nature of the assay: EMSA; HiTS-Eq, 1 nM pool, 10 min; buffer printed only for the single-RNA assays: 10 mM Tris pH 7.5, 150 mM NaCl, 3.4 mM EDTA, 0.001% NP-40, 30 C. Conditions: tags: His6 N-terminal (pET28a); label: 5' 32P. A digest of the protocol:
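These values rest on relative association constants, computed from read-count changes of each RNA species versus the control reaction and normalised to the cognate motif. Reads came from free RNA recovered by 8% native PAGE after purified RbFox RRM (wild type or mutant) at increasing concentrations was equilibrated for 10 min in 50 µL with 1 nM of a 5′-radiolabelled pool with 7 randomized nucleotides and DNA-annealed flanks.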
Consider B1, for which the binding signal was 0.00218 KA relative to UGCAUGU.

Regarding B2, the binding signal is 0.0107 KA relative to UGCAUGU.

On to B3, for which the binding signal is 0.0191 KA relative to UGCAUGU.

On to B4, for which the binding signal was 0.00926 KA relative to UGCAUGU.

Consider B5, for which the binding signal is 0.0127 KA relative to UGCAUGU.

With B6, the binding signal is 0.0172 KA relative to UGCAUGU.

Turning to B7, the binding signal is 0.00766 KA relative to UGCAUGU.

For B8, the binding signal is 0.0107 KA relative to UGCAUGU.

Turning to B9, the binding signal is 0.0159 KA relative to UGCAUGU.

For B10, the binding signal was 0.0157 KA relative to UGCAUGU.

In the case of B11, the binding signal was 0.00699 KA relative to UGCAUGU.

In the case of B12, the binding signal is 0.00352 KA relative to UGCAUGU.

B13: the binding signal was 0.0228 KA relative to UGCAUGU.

As to B14, the binding signal was 0.0039 KA relative to UGCAUGU.

Consider B15, for which the binding signal was 0.0029 KA relative to UGCAUGU.

Take B16: the binding signal was 0.00529 KA relative to UGCAUGU.

For B17, the binding signal is 0.0193 KA relative to UGCAUGU.

For B18, the binding signal was 0.0146 KA relative to UGCAUGU.

B19: the binding signal is 0.0128 KA relative to UGCAUGU.

With B20, the binding signal was 0.0221 KA relative to UGCAUGU.

Turning to B21, the binding signal was 0.0128 KA relative to UGCAUGU.

For B22, the binding signal is 0.00566 KA relative to UGCAUGU.

Consider B23, for which the binding signal is 0.00549 KA relative to UGCAUGU.

In the case of B24, the binding signal is 0.00729 KA relative to UGCAUGU.

Regarding B25, the binding signal is 0.00816 KA relative to UGCAUGU.

As to B26, the binding signal is 0.00674 KA relative to UGCAUGU.

For the molecule B27, the binding signal was 0.00902 KA relative to UGCAUGU.

Regarding B28, the binding signal was 0.017 KA relative to UGCAUGU.

With B29, the binding signal was 0.0107 KA relative to UGCAUGU.

For the molecule B30, the binding signal was 0.00595 KA relative to UGCAUGU.

Turning to B31, the binding signal is 0.0333 KA relative to UGCAUGU.

The values are drawn from PMC9911399, “Two distinct binding modes provide the RNA-binding protein RbFox with extraordinary sequence specificity”.
